These results are taken from ChEMBL document CHEMBL4888484, “Replenishing the malaria drug discovery pipeline: Screening and hit evaluation of the MMV Hit Generation Library 1 (HGL1) against asexual blood stage Plasmodium falciparum ,using a nano luciferase reporter read-out” (2022).

Out of some 150,000 compounds screened, about 540 (0.36%) showed an effect of 50% or more. The list shows a part of the results.

By % Inhibition is commonly meant the relative decrease from the control value, in per cent.

The assay relates to Plasmodium falciparum. The experiment in a line: Primary screen in NF54 nanoGlo assay, in single point, at 2uM, 72h; a lower Z score goes with more inhibition. It counts as functional, Erythrocyte. The following applies: timepoint 72 hour.
For `CN(CCN(C)C1CC1)C(=O)[C@@H]1CCc2cccnc21`, the “% Inhibition” value is recorded as -9% and the Z score was determined as 1.54.

Take `CC(C)Cc1nc(NC(=O)[C@H]2CC(=O)N(c3n[nH]c4ccccc34)C2)n[nH]1`: the “% Inhibition” value is -11% and the Z score was 1.37.

Consider `COc1ccc(CN2Cc3ccccc3C2=N)cc1OC`, for which the “% Inhibition” value was found to be 32% and the Z score was -3.64.

For the molecule `CC(C)CC(=O)N1CCC[C@H]1c1cccs1`, the “% Inhibition” value is -10% and the Z score worked out at 1.09.

Consider `CCc1ccc2c(c1)c(-c1ccc(Cl)cc1)c(C(=O)N1CCCCC1)n2C`, for which the “% Inhibition” value is reported as -8% and the Z score was determined as 0.97.

As for `O=C(NC1CCCCC1)c1nc(Cn2cnc3ccccc3c2=O)no1`, the “% Inhibition” value is -7% and the Z score is recorded as 0.92.

`Cn1c(CCN2C[C@@](C)(Cc3ccc4c(c3)OCO4)CCC2=O)n[nH]c1=O`: the “% Inhibition” value is on record as -1% and the Z score came out at 0.16.

Regarding `O=C(CCc1cn[nH]c1)N(CC1CC1)C1CCCCC1`, the “% Inhibition” value is recorded as -10% and the Z score was found to be 1.05.

Turning to `CC(C)C[C@@H](CN1CCCC1)NC(=O)c1ccon1`, the “% Inhibition” value is given as -3% and the Z score was 0.62.

On to `Cc1ccc2c(c1)N(Cc1c(C)noc1C)N=C(C(=O)N1CCOCC1)S2(=O)=O`, for which the “% Inhibition” value is recorded as 10% and the Z score is listed as -1.29.

Consider `O=C([C@@H]1CCCCN1S(=O)(=O)c1ccoc1)N1CCOCC1`, for which the “% Inhibition” value is given as -13% and the Z score was 1.86.

Consider `C1=CO[C@@H](CN(CCOc2ccccc2)C2CCOCC2)CC1`, for which the “% Inhibition” value is given as 5% and the Z score is given as -0.49.

On to `CCN(c1cccc(C)c1)[C@@H](C(=O)NC1CCCCC1)c1ccc(C)cc1`, for which the “% Inhibition” value is recorded as -8% and the Z score worked out at 1.2.

Take `O=C(N[C@@H]1CN(Cc2ccncc2F)C[C@H]1CO)c1cccnc1`: the “% Inhibition” value was -8% and the Z score amounted to 1.44.

With `CCCc1nnc(C(=O)N(C)Cc2noc(C)n2)o1`, the “% Inhibition” value was determined as 5% and the Z score was -0.9.

As to `CC(=O)N1CCC(C(=O)O[C@H]2C[C@@H](C)CC[C@@H]2C(C)C)CC1`, the “% Inhibition” value is reported as -6% and the Z score was 0.64.

Consider `CCN=C(NCc1noc(C)n1)NCc1ccc(C)cc1OC(C)C`, for which the “% Inhibition” value is -5% and the Z score turned out to be 0.42.

On to `C=CCC1(CC=C)CCCCN1C(=O)c1ncc[nH]1`, for which the “% Inhibition” value is recorded as -10% and the Z score amounted to 1.99.

In the case of `Cc1noc(C)c1CN(C)C(=O)[C@H]1CCCCN1`, the “% Inhibition” value is listed as 1% and the Z score was -0.12.

Consider `Cc1nc(C)c(C(=O)N2C[C@@H]3C[C@H]2C(=O)N3c2cccc(Cl)c2)o1`, for which the “% Inhibition” value is listed as -22% and the Z score worked out at 2.08.

As to `CCC[C@H]1CN(CCOC)C[C@@H]1NC(=O)c1nonc1C`, the “% Inhibition” value is recorded as -13% and the Z score was 1.74.

As to `Cc1n[nH]c(C)c1CN(C)C(=O)CCc1ccncc1`, the “% Inhibition” value is reported as -15% and the Z score is 2.

Consider `O=C(CN1C(=O)CNC1=O)NCc1cc(-c2ccccc2)n[nH]1`, for which the “% Inhibition” value was -3% and the Z score was 0.48.

Regarding `COc1ccc(C(=O)N2CC[C@H](OCC3CC3)C2)cc1`, the “% Inhibition” value was -6% and the Z score is given as 0.73.

Regarding `O=C(c1ccc(Br)c(-n2cnnn2)c1)N1CCOCC1`, the “% Inhibition” value is -16% and the Z score was determined as 2.29.

As to `Cc1cc(C(=O)NC(C)CC2CCCO2)c(F)cc1F` (stereo unspecified), the “% Inhibition” value was determined as 4% and the Z score was -0.43.

With `O=C1NCC2(CCN(CCc3cn[nH]c3)CC2)Oc2ccccc21`, the “% Inhibition” value was -14% and the Z score is 1.49.

In the case of `CCOc1ccc(C(=O)N2CCn3ccnc32)cc1`, the “% Inhibition” value is on record as -18% and the Z score worked out at 2.67.

Turning to `COc1ccc(CN(C(=O)[C@H]2C[C@@H]2C)c2ccncc2)cc1`, the “% Inhibition” value was -22% and the Z score is reported as 2.38.

`Cc1ccc(C2=NN(C(=O)CN3CCN(Cc4ccccc4)CC3)[C@H](c3cccn3C)C2)cc1C`: the “% Inhibition” value is given as -4% and the Z score was 0.45.

`CC(Cn1cncn1)NS(=O)(=O)N(C)C(C)C1CC1` (stereo unspecified): the “% Inhibition” value is on record as -8% and the Z score is 0.72.

`CCN1C(=O)N(CC)C2(O)c3ccccc3C(=O)C12O` (stereo unspecified): the “% Inhibition” value came out at 3% and the Z score is recorded as -0.36.

As to `CC(C)CCNC(=O)c1ccc(Br)cc1Br`, the “% Inhibition” value came to 3% and the Z score is on record as -0.44.

For `O=C(Nc1c(Cl)cncc1Cl)c1cc(C2CC2)no1`, the “% Inhibition” value is -6% and the Z score is given as 1.2.

As for `CO[C@@]12CC[C@@H](NC(=O)c3ccncc3)C[C@@H]1N(C(=O)c1cnc(O)cn1)CC2`, the “% Inhibition” value is -11% and the Z score turned out to be 2.2.

For the molecule `CC(C)n1ncnc1CNS(=O)(=O)C[C@H]1CCCO1`, the “% Inhibition” value is given as -12% and the Z score is listed as 2.29.

Take `O=C(CN1C(=O)C(=O)c2ccccc21)c1ccccc1`: the “% Inhibition” value came out at 7% and the Z score is on record as -0.91.

Turning to `CCOC1CC(NC(=O)c2nc(=O)[nH][nH]2)C1(CC)CC` (stereo unspecified), the “% Inhibition” value came to 1% and the Z score is on record as -0.11.

Turning to `CC(=C(F)C(=O)N1CCN(c2cnccn2)[C@@H](C)C1)C1CC1`, the “% Inhibition” value is recorded as -7% and the Z score came out at 1.35.

Consider `CC(C)(C)c1nc(CNC(=O)Nc2cccs2)no1`, for which the “% Inhibition” value is recorded as -6% and the Z score is on record as 1.13.

For `CC1CCCC(C)N1S(=O)(=O)c1ccc(NC(=O)c2cnccn2)cc1` (stereo unspecified), the “% Inhibition” value was -4% and the Z score worked out at 0.5.

With `Cc1ccc(-c2cn3c(n2)CO[C@@H](CNC(C)C)C3)cc1`, the “% Inhibition” value was -8% and the Z score is 0.97.

For the molecule `COc1ccc2cc3c(nc2c1)N(C(=O)c1ccccc1F)CC3`, the “% Inhibition” value is reported as -10% and the Z score came to 1.66.
